# Source: PubChem BioAssay AID504845 (National Center for Advancing Translational Sciences (NCATS), 2011)
# “And” between values parts separate entries of the source, which are not always exact repeats. Equal values may be shown once. Hit rate of the full screen: of about 390,000 compounds, about 150 (0.038%) were called active. Inconclusive results, whose numbers are uncertain, are shown with a selection of clear calls. Calls come from the whole dose curve; as a rule, active = well fitted inhibition curve with a large enough effect; inconclusive = small, poorly fitted or top-dose-only effect; inactive = no such curve, though single readings can be large or run the other way. A potency beside an inconclusive call is a rough fit, not a confirmed value. A structure can be active in one record and inactive in another.
# Biological target: Regulator of G-protein signaling 4 (Homo sapiens) (UniProt P49798)
# UniProt P49798, sequence (P49798 whole entry, looked up): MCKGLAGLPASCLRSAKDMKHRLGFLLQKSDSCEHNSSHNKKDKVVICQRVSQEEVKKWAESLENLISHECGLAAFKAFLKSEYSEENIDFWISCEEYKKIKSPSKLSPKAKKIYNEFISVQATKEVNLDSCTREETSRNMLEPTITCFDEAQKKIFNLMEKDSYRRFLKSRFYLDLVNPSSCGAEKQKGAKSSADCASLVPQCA
# Assay: Inhibitors of Regulator of G Protein Signaling (RGS) 4: qHTS; note: nearly all actives have a fitted effect of over 75% in size
# Details: Transcreener GDP fluorescence polarization, RGS4-accelerated GTP hydrolysis; series mostly up to 114 µM; activity change, negative = inhibition: at the top concentration
# Procedure, shortened: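 MLSMR compounds (23 nl, pin-transferred) preincubated 10 min at room temperature with a 500nM (2x) first reagent, then RGS4 at 900nM (2x) plus Transcreener GDP mix added; fluorescence polarization (620/688 nm) read before and after 90 min at 30 °C.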
# % is set by controls: 0 for no effect and ±100 for the full control effect; potency is the fitted concentration of half-maximal effect; tags give direction and shape of the fitted curve.
SMILES,"activity change, negative = inhibition",Potency
FC(F)(F)c1cc(-c2cccs2)nc2nc(N3CCOCC3)sc12,inactive: 7.42%,–
Cc1ccc(S(=O)(=O)/N=C2/NC(=O)/C(=C/c3cccnc3)S2)cc1,inactive: 12.9%,–
Cc1ccc(S(=O)(=O)N2CCN(c3nc(C(C)C)c4c(c3C#N)CC(C)(C)OC4)CC2)cc1,inactive: 47%,–
COc1ccc(NC(=O)CCS(=O)(=O)c2nc(-c3ccc4c(c3)OCO4)cc(C(F)(F)F)n2)cc1,inactive: -27.6%,–
COc1ccc(NC(=O)CN(c2cc(C)cc(C)c2)S(=O)(=O)c2c(C)n[nH]c2C)cc1,–,"inconclusive: 44.7 µM [inhibitor, partial curve, poor fit]"
C/C(=N\NC(=O)c1cccs1)c1cccnc1,–,"inconclusive: 35.5 µM [inhibitor, full curve, poor fit]"
N#Cc1c(N)sc(=S)c2c1CCCCC2,–,"inconclusive: 50.1 µM [inhibitor, partial curve, poor fit]"
Cc1nn2c(NCC(C)C)c3c(nc2c1-c1ccccc1)CCC3,inactive: 0.884%,–
COc1nc2ccccc2nc1CCC(=O)O,–,"inconclusive: 79.4 µM [inhibitor, partial curve, poor fit]"
N#Cc1c(NC(=O)Cn2nc(C(F)(F)F)c3c2CCCC3)sc2c1CCC2,–,"inconclusive: 50.1 µM [inhibitor, partial curve, poor fit]"
CC(=O)N1CCc2c(sc3nc(SCC(C)C)n(-c4ccc(C)c(Cl)c4)c(=O)c23)C1,–,"inconclusive: 50.1 µM [inhibitor, partial curve, poor fit]"
COc1ccc(OC)c(C2CC(=O)N3CN(c4cccc(Cl)c4C)CSC3=C2C#N)c1 (stereo not drawn),–,"inconclusive: 28.2 µM [inhibitor, full curve, poor fit]"
NC(=O)c1sc2nc3c(cc2c1N)CCCCCC3,inactive: -30.7%,–
CCOC(=O)/C=C/C(=O)Nc1cccc([N+](=O)[O-])c1,–,"inconclusive: 28.2 µM [inhibitor, partial curve, poor fit]"
O=C(N/N=C/c1ccc(O)c(O)c1O)/C(=C/c1ccc([N+](=O)[O-])cc1)NC(=O)c1ccccc1,–,"inconclusive: 20 µM [inhibitor, full curve, poor fit]"
CC(C)(C)S(=O)(=O)/C(C#N)=N/Nc1ccc(S(C)(=O)=O)cc1,–,"inconclusive: 39.8 µM [inhibitor, partial curve, poor fit]"
Cc1ccc(-c2nnn(CC(=O)N(CCO)C(C(=O)NC3CCCCC3)c3ccncc3)n2)o1 (stereo not drawn),–,"inconclusive: 50.1 µM [inhibitor, partial curve, poor fit]"
COc1cc(/C=C(\C#N)c2nc3ccccc3[nH]2)ccc1OCc1ccc(F)cc1,–,"inconclusive: 17.8 µM [inhibitor, full curve, poor fit]"
CNc1ccc(Br)cc(C(=O)/C=C/c2ccc(OC)cc2OC)c1=O,–,"inconclusive: 50.1 µM [inhibitor, partial curve, poor fit]"
O=c1nc2n(c3sc4c(c13)CCCC4)C(CBr)CS2 (stereo not drawn),–,"inconclusive: 31.6 µM [inhibitor, partial curve, poor fit]"
COc1cc(N2CCCC2)c(OC)cc1/C=C(/C#N)c1ccc(Br)cc1,–,"inconclusive: 100 µM [inhibitor, partial curve, poor fit]"

SMILES,"activity change, negative = inhibition",Potency
Oc1ccc(-c2[nH]ncc2-c2ccc(Br)cc2)c(O)c1,–,"inconclusive: 100 µM [inhibitor, single point]"
COc1ccc(NC(=O)CN2C(=O)CCc3cc(S(=O)(=O)N4CCOCC4)ccc32)c(OC)c1,inactive: 1.81%,–
Cc1cc(C(C)(C)C)oc1C(=O)N1CCN(C(=O)c2oc(C(C)(C)C)cc2C)CC1,inactive: -5.87%,–
Cc1[nH]c(=S)c(C#N)c(-c2ccco2)c1C(=O)N(C)C,–,"inconclusive: 79.4 µM [inhibitor, partial curve, poor fit]"
Cc1csc2nc(CSc3ccc(Cl)cc3)cn12,–,"inconclusive: 17.8 µM [inhibitor, full curve, poor fit]"
Cc1ccc(NS(=O)(=O)c2cc(NC(=O)c3ccc4c(c3)NC(=O)CS4)ccc2C)c(C)c1,–,"inconclusive: 22.4 µM [inhibitor, full curve, poor fit]"
CC/C(=C(/CC)c1ccc(O)cc1)c1ccc(O)cc1,–,"inconclusive: 70.8 µM [inhibitor, single point]"
CCOC(=O)C(N)CSC1CC(=O)N(c2ccc(C(=O)OC)cc2)C1=O (stereo not drawn),–,"inconclusive: 100 µM [inhibitor, single point]"
COCCNC(=O)/C(C#N)=C/c1c(N2CCN(c3cccc(Cl)c3)CC2)nc2c(C)cccn2c1=O,–,"inconclusive: 70.8 µM [inhibitor, single point]"
Cc1ccc2c(Cn3ccnc3)cc(=O)oc2c1C,–,"inconclusive: 70.8 µM [inhibitor, single point]"
CCOC(=O)c1c(NC(C)=O)sc2c1CCN(Cc1ccccc1)C2,inactive: -7.68%,–
CC(C)(C)NC(=O)CN(Cc1ccc2c(c1)OCO2)C(=O)CCC(=O)Nc1nccs1,–,"inconclusive: 100 µM [inhibitor, single point]"
O=C(N1CCN(c2ccccc2F)CC1)C1(c2cccs2)CCOCC1,–,"inconclusive: 89.1 µM [inhibitor, single point]"
O=C(CSc1n[nH]c(=O)[nH]c1=O)N/N=C/C=C\c1ccccc1,–,"inconclusive: 17.8 µM [inhibitor, full curve, poor fit]"
CCOc1ccc(C(=S)N2CCN(C)CC2)cc1,–,"inconclusive: 17.8 µM [inhibitor, full curve, poor fit]"
CC1CCCCN1C(=O)CN1C(=O)NC2(CCCCC2C)C1=O (stereo not drawn),–,"inconclusive: 100 µM [inhibitor, single point]"
COC(=O)C1=C(C)N(Cc2ccc(OC)cc2)C(=O)/C1=C\c1ccco1,–,"inconclusive: 79.4 µM [inhibitor, single point]"
CC(C)(Sc1ccc(CCN(CCCCC2CCCCC2)C(=O)NC2CCCCC2)cc1)C(=O)O,–,inactive and active: 26.7 µM
O=C(Cc1ccc(F)cc1)N1CCN(c2ccc([N+](=O)[O-])cc2)CC1,inactive: -0.703%,–
COc1cccc(/C=C2/C(=O)NN(c3ccc(F)cc3)C2=O)c1,–,"inconclusive: 35.5 µM [inhibitor, partial curve, poor fit]"
CC(=O)Nc1cccc(C(=O)OC(C(=O)c2ccc(C)cc2)c2ccccc2)c1 (stereo not drawn),inactive: 3.49%,–

SMILES,"activity change, negative = inhibition",Potency
CC(=O)N1CCc2cc(Br)cc(S(=O)(=O)N3CCN(c4ccccn4)CC3)c21,–,"inconclusive: 79.4 µM [inhibitor, single point]"
CCc1ccc(C(=O)c2cn(CC(=O)Nc3cc(OC)ccc3OC)c3ccc(Cl)cc3c2=O)cc1,inactive: -7.91%,–
S=C(NCc1ccco1)NCc1ccco1,–,"inconclusive: 50.1 µM [inhibitor, partial curve, poor fit]"
Cc1ccc2oc(C(=O)Nc3ccc(S(=O)(=O)N4CCCCC4C)cc3)cc(=O)c2c1 (stereo not drawn),inactive: 5.37%,–
COc1ccccc1CNC(=O)C(NS(=O)(=O)c1ccc2c(c1)CCN2C(C)=O)C(C)C (stereo not drawn),inactive: 0%,–
CCOc1ccc(-n2c(N)c(C(=O)NCC3CCCO3)sc2=S)cc1 (stereo not drawn),–,"inconclusive: 56.2 µM [inhibitor, partial curve, poor fit]"
CC1=CC2=C(OC1N(C)C)c1cccc3cccc(c13)C2=O (stereo not drawn),–,"inconclusive: 50.1 µM [inhibitor, partial curve, poor fit]"
CC1CCCN(C(=S)SCC(=O)c2cc(Br)cc(Br)c2O)C1 (stereo not drawn),–,"inconclusive: 20 µM [inhibitor, full curve, poor fit]"
Cc1ccc(S(=O)(=O)N2CCC(C)CC2)c([N+](=O)[O-])c1,–,"inconclusive: 44.7 µM [inhibitor, partial curve, poor fit]"
CN(C(=O)c1cc([N+](=O)[O-])ccc1N1CCCC1)C1CCCCC1,inactive: 30.4%,–
COc1ccc(OC)c(-n2c(=S)[nH]c3c(sc(=S)n3-c3ccccc3)c2=O)c1,–,"inconclusive: 79.4 µM [inhibitor, partial curve, poor fit]"
Cc1cc(C)cc(NC(=O)c2ccc3nc[nH]c3c2)c1,–,"inconclusive: 79.4 µM [inhibitor, partial curve, poor fit]"
C/C(=N\N=C1\NC(=O)C(CC(=O)Nc2ccc(C)c(Cl)c2)S1)C(C)(C)C (stereo not drawn),inactive: -34%,–
CC(C)(C)C1CCc2c(sc(NC(=O)c3noc4c3CCCC4)c2C#N)C1 (stereo not drawn),–,"inconclusive: 44.7 µM [inhibitor, partial curve, poor fit]"
N#Cc1ccsc1NC(=O)c1cccc(-n2cnnn2)c1,–,"inconclusive: 100 µM [inhibitor, partial curve, poor fit]"
COc1cccc(OCC(=O)NNC(=O)c2ccc(-c3ccccc3)cc2)c1,–,"inconclusive: 100 µM [inhibitor, partial curve, poor fit]"
COc1cccc(CC2(CO)CCCN(Cc3ccc(-c4ccco4)cc3)C2)c1 (stereo not drawn),–,"inconclusive: 79.4 µM [inhibitor, partial curve, poor fit]"
CCCCOC(=O)Nc1ccc(N2CCCCC2)cc1,–,"inconclusive: 89.1 µM [inhibitor, single point]"
CCc1ccc(/C=C2\SC(=S)N(CCCC(=O)Nc3ccccc3C(=O)O)C2=O)cc1,–,"inconclusive: 79.4 µM [inhibitor, single point]"
CCOC(=O)c1sc2nc3c(SCCC(=O)O)cc(C(=O)c4cc(OC)ccc4O)cn3c(=O)c2c1C,inactive: -37%,–
Cc1cc(C)cc(NC(=O)CN(c2ccc(F)cc2)S(C)(=O)=O)c1,–,"inconclusive: 79.4 µM [inhibitor, partial curve, poor fit]"
